Test results published in PubChem BioAssay AID1963576 (National Center for Advancing Translational Sciences (NCATS), 2024).
Screen size: about 46,000 compounds; about 60 (0.1%) were called active. Another 3% or so got no clear call; they are omitted. The call rests on the fitted dose curve; in most records, active means well fitted inhibition curve with a large enough effect; inconclusive means small, poorly fitted or top-dose-only effect; inactive means no such curve, though single readings can be large or run the other way. The list shows a part of the results.

assay: Primary qHTS assay for Inhibitors of ovarian cancer metastasis using an organotypic tumor microenvironment (TME) model.; further: nearly all actives have a fitted effect of over 65% in size;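 on activity change, negative = inhibition: plate controls were DMSO wells for no effect and tomatine positive control wells for full effect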; details: SKOV3ip1-GFP adhesion/invasion on 3D omental model, fluorescence; series mostly up to 45.8 µM; activity change, negative = inhibition: at the top concentration
Procedure, shortened: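 Primary human omental fibroblast/mesothelial 3D culture pre-formed 48 h. SKOV3ip1-GFP cells added with compounds (0.36-46 umol/L), incubated 2 h RT/16 h 37 C, fixed; GFP cells quantified at 488/509 nm.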

Activity change, negative = inhibition, inactive:
Cc1nn(CC(=O)NCc2ccccc2Cl)c(=O)c2nn(-c3ccccc3)c(C)c12 1.27%
COc1ccc(-n2nc(C(=O)Nc3cccc(C(F)(F)F)c3)c3c4ccccc4n(C)c3c2=O)cc1 -0.955%
Cc1ccc(-c2nc(C)c(CCNS(=O)(=O)c3ccccc3F)s2)cc1 1.6%
CCCCn1cc(S(=O)(=O)c2ccc(OC)cc2)c(=O)c2cc(F)c(N3CCCC3)cc21 2.99%
COc1ccc(C(=O)Nc2ccc3nc(SCC(=O)N4CCCc5ccccc54)sc3c2)cc1 -19.7%
COC(=O)c1sccc1S(=O)(=O)N(CC(=O)NCc1ccc(C)cc1)c1ccc(Cl)cc1 4.69%
COC(=O)CN1C(=O)CSc2ccc(S(=O)(=O)N3CCOCC3)cc21 -0.811%
CCN(CC)C(=O)c1sc2c(c1C)c(=O)n(-c1ccc(Cl)c(Cl)c1)c(=O)n2Cc1cc(=O)n2c(C)cccc2n1 -0.329%
COc1ccccc1CNC(=O)CN1C(=O)COc2ccc(S(=O)(=O)N3CCCCC3)cc21 -1.37%
Cc1cc(C)cc(N2C(=O)N(CC(=O)c3ccc(Br)cc3)c3ccccc3S2(=O)=O)c1 3.57%
Cc1cccc(NC(=O)N2CCC(CN3CCc4ccccc4C3)CC2)c1C -22.3%
O=C1C(=O)N(C2CCN(S(=O)(=O)c3ccc(F)cc3)CC2)CCN1Cc1ccccc1 3.4%
CCN(C(=O)c1oc2ccc(S(=O)(=O)N3CCCCCC3)cc2c1C)c1ccccc1 -32.1%
CCOC(=O)c1cccc(NC(=O)CN2C(=O)CC(C)(C)Sc3ccccc32)c1 -28.9%
Cc1ccc(Nc2c(-c3ccc(N4CCOCC4)cc3)nc3ncccn23)cc1 20.6%
CCOC(=O)c1cc(S(=O)(=O)N2CCN(c3ccc(OC)cc3)CC2)[nH]n1 -2.85%
CCCCn1c2ccc(F)cc2c2nnc(SCCN(CC)CC)nc21 -15.9%
COc1ccc(CC(=O)NCc2nc3cccnc3n2Cc2ccc(F)cc2)cc1OC 12.4%
CCOc1cc2[nH]c(=O)n(Cc3ccc(C(=O)NCCN(CC)CC)cc3)c(=O)c2cc1OCC -1%
Cc1ccc(C)c(N2CCN(C(=O)c3ccc(CS(=O)(=O)c4ccc(Br)cc4)o3)CC2)c1 3.03%
CCCN(C(=O)CCc1nc(-c2ccccc2F)no1)c1ccc(CC)cc1 -2.47%
COc1ccc(NC(=O)c2cc3c(=O)[nH]c4ccccc4c3n2C)cc1Cl -14.7%
CN(CC(=O)Nc1cccc(C(F)(F)F)c1)S(=O)(=O)c1ccc2[nH]c3c(c2c1)CCCC3 -6.93%
COc1cccc(NC(=O)CSc2nc3ccccc3nc2N2CCOCC2)c1 -1.94%
FC(F)c1nc2ccccc2n1-c1nc(N2CCOCC2)nc(N2CCOCC2)n1 9.32%
CCc1ccccc1NC(=O)CSc1nnc(-c2cc(OC)c(OC)c(OC)c2)o1 2.31%
CC(=O)Nc1cc(C(=O)NCc2ccccc2)ccc1Sc1ccc(C)cc1 4.96%
Cc1ccc(N2CC(c3nnc(Cc4ccc(Cl)cc4)o3)CC2=O)cc1 (stereo not given) -10.8%
CNS(=O)(=O)c1cn(CC(=O)Nc2ccc(F)cc2F)cc1S(=O)(=O)NC -1.25%
CCCCNc1sc(S(=O)(=O)CC)nc1S(=O)(=O)c1ccc(C)cc1 1.33%
CN(C(=O)CSc1cn(CC(=O)N2CCCCCC2)c2ccccc12)c1ccccc1 4%
O=C(NC1CCCCC1)c1ccc(Cn2c(SCc3cccc(F)c3)nc3cccnc32)cc1 -16.1%
CCN(c1ccc(OC)cc1)S(=O)(=O)c1c(C(=O)N2CCCCCC2)c(C)n(C)c1C -1.33%
CO[C@H]1C[C@@H]2CC[C@@H](C)[C@@](O)(O2)C(=O)C(=O)N2CCCC[C@@H]2C(=O)O[C@H]([C@H](C)C[C@@H]2CC[C@H](OC(=O)C(C)(CO)CO)[C@H](OC)C2)CC(=O)[C@H](C)C=C(C)[C@@H](O)[C@@H](OC)C(=O)[C@H](C)C[C@H](C)C=CC=CC=C1C 0.0515%
Cc1cccc(C(=O)Nc2ccc(-c3nc4ccccc4s3)c(C)c2)c1 -9.2%
CCOc1ccc(OCC)c(NC(=O)c2cc(C)nc3c2c(C)nn3-c2cccc(Cl)c2C)c1 -8.95%
Cc1ccc(CC(=O)N(Cc2nc(-c3ccc(C)cc3)no2)C(C)C)cc1 25.2%
Cc1ccc(C)c(N2CCN(C(=O)c3cccc(-n4c(C)nc5cccnc54)c3)CC2)c1 -1.93%
O=C(CCc1nc(-c2ccccc2F)no1)Nc1cccc(C(F)(F)F)c1 4.8%
CCc1ccc(NC(=O)CSC2=Nc3ccccc3C3=NC(CCC(=O)NCc4ccccc4OC)C(=O)N23)cc1 (stereo not given) 18.9%
CCOCCCNC(=O)c1cnc2sc(N3CCCCCC3)nn2c1=O -1.03%
O=C(COc1ccc(Cl)cc1)Nc1cc(-c2ccccc2)no1 4.28%
C[C@@H]1C[C@H]2[C@@H]3CCC4=CC(=O)C=C[C@]4(C)[C@@]3(F)[C@@H](O)C[C@]2(C)[C@@]1(O)C(=O)CO 13.1%
COc1ccc(OC)c(NC(=O)CN2C(=O)CC(c3ccco3)Sc3ccccc32)c1 (stereo not given) -26.1%
COc1ccc2c(c1)c1c(c(=O)n(-c3ccccc3C)c(=O)n1Cc1ccccc1C)n2C -16.1%
COCCCNc1ncnc2c1c(-c1ccccc1)cn2-c1ccc(C)c(Cl)c1 7.41%
CCn1c(CN2CCN(c3cccc(Cl)c3)CC2)nc2c1c(=O)[nH]c(=O)n2C -5.85%
Cn1c(=O)c2sccc2n2c(CCCC(=O)Nc3ccc(F)cc3F)nnc12 6.74%
CCCCN(CC)C(=O)Cn1c(=O)n(-c2ccc(OCC)cc2)c(=O)c2c3c(sc21)CCC3 0.387%
O=C(c1ccc2c(c1)OCO2)c1cn(Cc2ccc(F)cc2)c2ccccc2c1=O -2.22%
CCCCOc1ccc(CNC(=O)Cn2ncn3c(cc4cc(F)ccc43)c2=O)cc1 -6.57%
Cn1nc(C(=O)N2CCN(c3ccccc3)CC2)c2c1-c1ccccc1SC2 -8.35%
COc1ccc(CNC(=O)c2cc3ccccn3n2)c(OC)c1 -14.9%
COc1cc(OC)c(C2C=C(C(=O)O)Nc3ncnn32)cc1OC (stereo not given) -24.7%
Cc1ccc(C2CCN(C(=O)c3cnn(-c4ccccc4Cl)c3C3CCN(C(=O)OC(C)(C)C)CC3)C2)cc1 (stereo not given) -19.7%
CCCOC(=O)c1c(NC(=O)c2nc3ncccn3n2)sc(C(=O)OCC)c1C 2.77%
COc1ccccc1CNC(=O)c1cn(C)c2ccc(S(=O)(=O)N3CCC(C)CC3)cc2c1=O -6.24%
NC(=NCCCCCCN=C(N)N=C(N)Nc1ccc(Cl)cc1)N=C(N)Nc1ccc(Cl)cc1 -9.36%
Cc1ccc(NC(=O)C2CCCN(S(=O)(=O)c3cccc4cccnc34)C2)cc1Cl (stereo not given) -1.39%
Cc1ccc(C(=O)Nc2cccc(C(=O)OCc3cc(=O)n4c5c(sc4n3)CCCC5)c2)cc1 -57.6%
O=C(CN1Cc2ccccc2C1=O)Nc1cc(F)ccc1F -0.211%
Cc1cccc(N(C)C(=O)C(Cc2ccccc2)NS(=O)(=O)c2cccc3nsnc23)c1 (stereo not given) -4.71%
COc1ccc(N2CCN(S(=O)(=O)c3c(C)nc4scc(C)n4c3=O)CC2)cc1 -7.82%
Cc1ccc(C)c(NC(=O)N2CC=C(c3c[nH]c4ccccc34)CC2)c1 -1.93%
CC(=O)c1ccc(NC(=O)C2CCN(S(=O)(=O)c3ccc4c(c3)CCCN4C(=O)C3CCC3)CC2)cc1 8.65%
CCOc1ccc(-n2c(SCC(=O)Nc3ccccc3OC)nc3c(oc4ccccc43)c2=O)cc1 2.82%
COc1ccccc1OCC(=O)N(Cc1ccc(N(C)C)cc1)CC1CCCO1 (stereo not given) 10.1%
COc1ccc(Nc2ccc3cc(S(=O)(=O)N4CCCC4)ccc3n2)cc1Cl 2.44%
CCc1ccccc1NC(=O)CN(Cc1ccccc1)S(=O)(=O)c1ccc2nc(C)sc2c1 9.05%

outcome, inactive:
O=S(=O)(NCc1cccc(Br)c1)c1ccc(-c2cc(C(F)(F)F)on2)s1
CCOc1ccc(NC(=O)Cn2cc(C(=O)c3ccc(C)c(C)c3)c(=O)c3cc4c(cc32)OCCO4)cc1
CN1C(=O)C(C)(C)c2cc(S(=O)(=O)NCc3ccc(C(=O)Nc4ccc(Cl)cc4)cc3)ccc21
COc1ccc(CCNC(=O)CCCn2c(=O)c3ccccc3n(Cc3ccccc3C)c2=O)cc1OC
Cc1cccc(C)c1OCc1nc2c3cnn(-c4cccc(F)c4)c3ncn2n1
Cc1ccc(CNC(=O)c2c3c(nc4ccccc24)C(=O)N(C2CCCCC2)C3)cc1
Cc1ccccc1NC(=O)c1sc2nc3c(cc2c1N)CCCC3
Cc1csc2nc(COC(=O)c3ccccc3NC(=O)c3ccc(F)cc3)cc(=O)n12
CCc1ccc(CN2C(=O)c3ccccc3C2C(=O)NCCc2ccc(OC)c(OC)c2)cc1 (stereo not given)
Cc1cccc(N2CCN(C(=O)Cn3c(=O)c4cccn4c4ccc(F)cc43)CC2C)c1 (stereo not given)
COc1ccc(N2CCN(CC(O)COc3ccccc3C(C)(C)C)CC2)cc1 (stereo not given)
Cc1ccc(CNC(=O)C(C(C)C)N2Cc3ccccc3C2=O)cc1 (stereo not given)
Cc1nn(-c2ccccc2)c(OC(=O)c2ccc(Br)cc2)c1S(=O)(=O)c1ccccc1
CCOc1ccc(NC(=O)Cn2c(=O)n(CCc3ccccc3)c(=O)c3c4c(sc32)CN(C(C)=O)CC4)cc1
Cc1cc2nn(-c3ccc(Cl)cc3)nc2cc1NC(=O)C(C)C
CC(=O)c1cccc(-n2c(=O)c3c4c(sc3n(Cc3ccccc3Cl)c2=O)CN(C(C)=O)CC4)c1
Cc1c(F)cccc1NC(=O)C1CCCN1S(=O)(=O)c1ccc(F)cc1 (stereo not given)
COc1cc(OC)c(NC(=O)c2ccc3nc(C(C)C)oc3c2)cc1Cl
Cc1cc(C)c(NC(=O)CSc2nc(C)cc(C)c2C#N)c(C)c1
Cc1ccc2oc(=O)c3cnn(CC(=O)N(C)c4ccc(F)cc4)c3c2c1
COc1ccc(-n2nc3ccc(NC(=O)COc4ccc(C)c(C)c4)cc3n2)cc1
